Source: PMC12136788
The list shows a part of the results.

T1: UNK ZnF1-3 (human, UniProt Q9C0B0 31-174)
T1 sequence: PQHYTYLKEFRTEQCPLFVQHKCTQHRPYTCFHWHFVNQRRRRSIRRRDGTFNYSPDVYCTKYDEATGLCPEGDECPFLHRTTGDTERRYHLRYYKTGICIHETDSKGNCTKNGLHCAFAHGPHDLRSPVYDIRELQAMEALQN

B1: 10871691_10871811_498_CDS_ENSMUSG00000090112_ENSMUST00000044053|mouse|control|control (ssRNA)
RNA: GGGAGUUCUACAGUCCGACGAUCUAAACUCUCUUUGGGGAGAAGCUGAAGAGCAAAAUCUCCCAGAAAUGCUUUCCAAGAAUUAUCCACACGAUAGGGAGAAACUGUAACAUUCAAAGUCACAGACAAACGGGUCUCUUCCUCCAACAGAGGAUUGAGCAUCA
B2: chr11:100577090:100577091:-_ENSMUSG00000019173_ENSMUST00000107364|mus_mus|FALSE|FALSE (ssRNA)
RNA: GGGAGUUCUACAGUCCGACGAUCAAAGGGUGACUGCUCCAAGCCCUGUCCCCACGGAUGAGGAGCACAGGAGCAUGGCUACUACCAGCAAAGGGCAAGUGGGGGAGCGGGAGAAAGGGACCUGGGAAGAGCAGAAGAUCAUAUCAACAGAGGAUUGAGCAUCA
B3: 94012485_94012977_1247_3pUTR_ENSG00000137942_ENST00000370253|human|control|control (ssRNA)
RNA: GGGAGUUCUACAGUCCGACGAUCAGAUGAUUUAUGUCACUGCUAUGUCUUCUGUCUCCUCUCCCACCUGUUUUGCCUUCGACUUCAGAGAGCCAAGCCUCAUUCUUAUGGAUUUCCAUUCGUAGGCGGUCAAUGUUAUUCAUGCAACAGAGGAUUGAGCAUCA
B4: chr20:33097842:33097843:+_ENSG00000078747_ENST00000374864|hu_hu|FALSE|FALSE (ssRNA)
RNA: GGGAGUUCUACAGUCCGACGAUCAAAAAUAUUAAAUAGCCAAGCCCUAUAGAACUAGGGCCAGGGCUACUUCAAAUAUAACUAUUCUGUAUUUUAAAAAUAUAGGGCAGAAAGCCUUUUGGGUGAUAUUUAUAUAUUUUCACACAACAGAGGAUUGAGCAUCA
B5: chr16:94651144:94651145:+_ENSMUSG00000040785_ENSMUST00000117648|mus_hu|mus_mus_mus_hu_True|18_98 (ssRNA)
RNA: GGGAGUUCUACAGUCCGACGAUCAUUUUCUUGAAUCAAGUGACCGAUAACAUAGUCCACUGCUUCAUUUAGAAAAUUUCUGCUAGAAAAACAGGUUGUAUAGUCUUCUGUGCUCAAAACCUUCCAAGAAAGCAAUUCUUUGAGCAACAGAGGAUUGAGCAUCA
B6: chr7:141438946:141438947:+_ENSG00000106028_ENST00000265304|hu_mus|hu_hu_hu_mus_True|58_108 (ssRNA)
RNA: GGGAGUUCUACAGUCCGACGAUCGACUACCUGUAAUUAACACAGGUCUUCGAAACAUGGCUUCUGUUUUUCUUACAGUCUAAUCUUUAGGCUUUUCCUAAAGGAAAGAAAGAAAAGAGAAAAAUGAUAAAUCAAGAAACUACACAACAGAGGAUUGAGCAUCA
B7: 21814299_21815161_997_CDS_ENSMUSG00000021823_ENSMUST00000022369|mouse|control|control (ssRNA)
RNA: GGGAGUUCUACAGUCCGACGAUCUCCUAGGAUCUCCCUGCGUUCCUUGCCUGCACAAAGUUCACCAACUUUUCCAGCUUCAUCUAAGAUCUGCCUGAUGGCCUGCUCUCCAGCAUCCCCUGGGGAGGCAUUGGGGUCACGGAGCAACAGAGGAUUGAGCAUCA
B8: 44741183_44746912_2703_CDS_ENSG00000105953_ENST00000222673|human|control|control (ssRNA)
RNA: GGGAGUUCUACAGUCCGACGAUCUUUGCCGGUGCAGAAGAGAAGCCUUUUGACAUUUUCUGGGUUCUGAGCUGCAGGGCCAUCUUCUGGGAUCACCCGCUGGAAGUGGGUUCCUGGAAGCAUCUCAUCAAAGCUGGAUCUGGCCAACAGAGGAUUGAGCAUCA
B9: chr2:180453240:180453241:+_ENSMUSG00000027573_ENSMUST00000029090|mus_hu|FALSE|FALSE (ssRNA)
RNA: GGGAGUUCUACAGUCCGACGAUCAACACAUAGCCCCCUCACACGCAUCCCCCAAAAGCCACACAACCCAGACCAAAGGGAAAACAAAUCAAACUCAAUGCCCUCACACAUGAGCCAUCUUUGAAUUAGGAUUUACAAAUUUAUCAACAGAGGAUUGAGCAUCA
B10: chr6:119226881:119226882:+_ENSG00000111875_ENST00000229595|hu_mus|motif|central (ssRNA)
RNA: GGGAGUUCUACAGUCCGACGAUCUGGGUUUUCCCUUAAUUCUGUUUCAGUGUAUUCAUUAUUUACAUAGUAGCCAACUCGGAUAAAUUCUUGACCUCGGUAGGUGCAAGUAAUCAGAACAACUGUUACCCCCACUGCAUCUGCCAACAGAGGAUUGAGCAUCA
B11: chr16:21666878:21666879:+_ENSG00000197006_ENST00000396014|hu_hu|FALSE|FALSE (ssRNA)
RNA: GGGAGUUCUACAGUCCGACGAUCUUUAAAAACAUUCCUUUACACACUACAAAGAAAUAAUUAGUAUUUUGGCUUUUUAAAUUCCUACAUGAUAUUUAGAAUGGCGGUCCCCAAGGGUCCUCCCUUCACGUAAUUGUGAACACACAACAGAGGAUUGAGCAUCA
B12: chr20:17594467:17594468:-_ENSG00000125844_ENST00000246043|hu_hu|motif|central (ssRNA)
RNA: GGGAGUUCUACAGUCCGACGAUCUUGAGAACUGGCUGCCCGGUCCCACCCGCUUCCCGCCCCGCCCCACUGAAAAAACACGGAACGAUUGCACUGACAGACAGACCCCAGAGCGCCCGGCCUCCCACACACCCACGGGGCUGUCAACAGAGGAUUGAGCAUCA
B13: chr15:38777322:38777323:+_ENSG00000171262_ENST00000397609|hu_mus|motif|central (ssRNA)
RNA: GGGAGUUCUACAGUCCGACGAUCUCAACCUAUUUUUCAAAAAGGACAACUGACUAUGCACAUAUAUUAGACACUUCCUCGGUUUUGUAAAAUAGAAUUAACAAUACAGGGCAGAUCCACAGGUAUACAAAUGACAUGAGAGUCCAACAGAGGAUUGAGCAUCA
B14: 138611613_138613062_648_5pUTR_ENSMUSG00000029730_ENSMUST00000000505|mouse|control|control (ssRNA)
RNA: GGGAGUUCUACAGUCCGACGAUCCUUAACUUUUUCUUUUUCGAUCGCGUAGUCCUUAAGCGCCAUCGCUGCCGGGGACGGUGUGGCAGGACUUGAAGGGCUCAAAAAUCUCUCUCUGGGGAAGCAGAAAACGAACGCGCGGCGCAACAGAGGAUUGAGCAUCA
B15: chr19:16212804:16212805:+_ENSG00000167460_ENST00000300933|hu_mus|hu_hu_hu_mus_False|8_48 (ssRNA)
RNA: GGGAGUUCUACAGUCCGACGAUCAACAAUUCUGGAGUGAAGGAAAGAUGUAACAUGGAACAGCAUUAAAGCUCAGUCAGAAGGCACGUGGGUAAUUAUGAUCACCCCAGCAUUCUCGCUUGGAAUGUGCUUGAGAAAUCUGUUCAACAGAGGAUUGAGCAUCA
B16: chr14:76904430:76904431:+_ENSMUSG00000022010_ENSMUST00000022587|mus_mus|mus_mus_mus_hu_True|58_58 (ssRNA)
RNA: GGGAGUUCUACAGUCCGACGAUCUGCAGCCAAAAACACCCUCGUGGAAAAAAAGAGGGAACACCAGCAGCCUUGUACAAACUAGAUAAAAUCUUCUGGCUUUCCGCAGCCCAGGGAGAAACAGAAAACGGCAGCCCUAAUUUACAACAGAGGAUUGAGCAUCA
B17: chr18:48606039:48606040:+_ENSG00000141646_ENST00000342988|hu_hu|FALSE|FALSE (ssRNA)
RNA: GGGAGUUCUACAGUCCGACGAUCACAUAUUGUGUCUGUGGUACAGUCAAUACAUCUGCAACUUUUCUACUUAAAUUCUCUAUACAAAGUCACUGCCAAUUGAUAUGAUCAUUGAUGGCAAAGGGCUUAGAAUAACCAAAAGAUCAACAGAGGAUUGAGCAUCA
B18: chr1:220276048:220276049:+_ENSG00000067704_ENST00000302637|hu_hu|hu_hu_hu_mus_True|1_68 (ssRNA)
RNA: GGGAGUUCUACAGUCCGACGAUCGCAAAUUGCCUGGUUGGCGGGAAUUGUCCAAGGCUGGGUGGUCCAGACCAAAACGCUAACAGGGGAUGAGGCAUCUGUAAGAGACUCCAACUUCGGAGGAGGUCUCAGGAGGGGAAAUUUCAACAGAGGAUUGAGCAUCA
B19: chr10:89574256:89574257:-_ENSG00000138138_ENST00000328142|hu_mus|FALSE|FALSE (ssRNA)
RNA: GGGAGUUCUACAGUCCGACGAUCCUGAGCUUCUACCUUCUGCUUCCUGGUGGGGUCAAUGGCAUCUACCAUCCAUUUAAUAGUGAAGUACGUUACUGCACCAAAUAUUGUUAAACGGAAAAUUAAACCGACAACUUCAUUCCGCAACAGAGGAUUGAGCAUCA
B20: chr3:179342097:179342098:+_ENSG00000136521_ENST00000259037|hu_mus|FALSE|FALSE (ssRNA)
RNA: GGGAGUUCUACAGUCCGACGAUCAGUUCCUGAAUAUUCACAGGACCGCUGCACCUUCCACCUGCCAGACAACGGCAUCAGCAGCUUAUCAACAGUGUCACUUUAGGAAUUCACAACUUCCCAGACCUCCAGGUUUCAUUACUACAACAGAGGAUUGAGCAUCA
B21: chr14:32000333:32000334:-_ENSMUSG00000021910_ENSMUST00000168206|mus_hu|motif|central (ssRNA)
RNA: GGGAGUUCUACAGUCCGACGAUCGUCCCGGAGAUCCAGGUUGACCAGUGAGUAGAGCUUGUGCAGGCCACUCAGACUCUCGGGGAGGUUGCCUGCCAGGUUUAAGGUCUUGAUGUUCCCCAGCUUGGUGUGAAGCCCUUCCAACAACAGAGGAUUGAGCAUCA
B22: chr2:5814250:5814251:-_ENSMUSG00000025816_ENSMUST00000102981|mus_hu|mus_mus_mus_hu_True|28_58 (ssRNA)
RNA: GGGAGUUCUACAGUCCGACGAUCUUCCUUUCCGGUUUCUGAAUUUCUGGUAGAACUGCACAGAAUGGUUUGAUAACUUCUAAAAACUUGAUGCCCAUGGCUGCUGCUCAGCACACCCAGGGGGAAACCGCGGCCUCGGCGCUGCAACAGAGGAUUGAGCAUCA

target: T1, UNK ZnF1-3; assay: nsRBNS (natural sequence RNA bind-n-seq); RBNS binding buffer (assumed for nsRBNS): 25 mM Tris pH 7.5, 150 mM KCl, 3 mM MgCl2, 0.01% Triton X-100, 500 ug/ml BSA, 20 U/ml SUPERase-In, 4 C; UNK is unkempt and MSI1 is Musashi-1; names of the RNAs are library labels; protein concentration not given here; high values mean tight binding

Binder	binding signal [enrichment R]
B1	0.815
B2	1.4
B3	0.451
B4	0.905
B5	0.493
B6	0.498
B7	0.759
B8	1.08
B9	1.87
B10	0.872
B11	0.916
B12	0.942
B13	0.894
B14	1
B15	1.18
B16	2.26
B17	0.795
B18	1.58
B19	1.26
B20	1.13
B21	0.833
B22	0.976
